This is an account of results in a collection of fitness landscapes (doi:10.1126/science.1257360).

Sequences and labels used below:
B1: PhoQ; a variant is named by its letters at X, in order, P23837 (parent)
chain: MKKLLRLFFPLSLRVRFLLATAAVVLVLSLAYGMVALIGYSVSFDKTTFRLLRGESNLFYTLAKWENNKLHVELPENIDKQSPTMTLIYDENGQLLWAQRDVPWLMKMIQPDWLKSNGFHEIEADVNDTSLLLSGDHSIQQQLQEVREDDDDAEMTHSVAVNVYPATSRMPKLTIVVVDTIPVELKSSYMVWSWFIYVLSANLLLVIPLLWVAAWWSLRPIEALAKEVRELEEHNRELLNPATTRELTSLVRNLNRLLKSERERYDKYRTTLTDLTHSLKTPLXXLQXXLRSLRSEKMSVSDAEPVMLEQISRISQQIGYYLHRASMRGGTLLSRELHPVAPLLDNLTSALNKVYQRKGVNISLDISPEISFVGEQNDFVEVMGNVLDNACKYCLEFVEISARQTDEHLYIVVEDDGPGIPLSKREVIFDRGQRVDTLRPGQGVGLAVAREITEQYEGKIVAGESMLGGARMEVIFGRQHSAPKDE

Some of the results follow.

The test covers variants of B1. Description: enrichment ratio after two sorts for PhoP signalling (ratio (wild type AVST 3.29)); higher = more functional. The following applies: with PhoP (E. coli).
Take PGKH: the enrichment ratio is not above 0.25.
With DHMK, the enrichment ratio is not above 0.25.
Next, GYRP: not above 0.25; SYKC: not above 0.25; WQCN: not above 0.25.
Take RGIQ: the enrichment ratio is not above 0.25.
Turning to AWWG, the enrichment ratio was not above 0.25.
For HKYL, the enrichment ratio was not above 0.25.
Next, MCTC: not above 0.25.
In the case of QDIR, the enrichment ratio is not above 0.25.
The result for TRYH reads not above 0.25; that for MVLR, not above 0.25.
The result for AGDD reads not above 0.25; that for SYTH, not above 0.25.
The result for TILI reads not above 0.25; that for ESCS, not above 0.25.
Take GLSV: the enrichment ratio was 3.04.
As to VSLH, the enrichment ratio came out at 0.279.
As to MDMY, the enrichment ratio is not above 0.25.
As to YIYG, the enrichment ratio is not above 0.25.
Consider IPDR, for which the enrichment ratio was not above 0.25.
Next, WHAD: not above 0.25; IFRT: not above 0.25; MRRE: not above 0.25.
Next, NHRI: not above 0.25; WLTP: not above 0.25; QLNM: not above 0.25.
Consider PFCH, for which the enrichment ratio was not above 0.25.
For FWPW, the enrichment ratio was not above 0.25.
The result for WALL reads 8.8; that for SFNK, not above 0.25; that for GGWL, not above 0.25.
On to PFNG, for which the enrichment ratio is not above 0.25.
Next, LTHL: 3.35.
As to NKLR, the enrichment ratio was not above 0.25.
Consider PDTA, for which the enrichment ratio is not above 0.25.
With RWLM, the enrichment ratio was not above 0.25.
On to IAHT, for which the enrichment ratio was not above 0.25.
Next, GCLQ: 3.84; EGGD: not above 0.25.
As for ADVC, the enrichment ratio stood at 5.18.
In the case of VWRR, the enrichment ratio was not above 0.25.
For the variant RYTC, the enrichment ratio is not above 0.25.
The result for LNEY reads 1.11; that for YEGY, not above 0.25.
For WIAI, the enrichment ratio was not above 0.25.
The result for WFNV reads not above 0.25; that for QAHL, 16.7; that for FLLV, 0.38.
Next, NPGS: not above 0.25; EFIS: not above 0.25; TPHK: not above 0.25.
Consider GTYP, for which the enrichment ratio is not above 0.25.
Regarding DNLC, the enrichment ratio was not above 0.25.
Next, KRDW: not above 0.25; PWFE: not above 0.25; YIFY: not above 0.25.
Next, DQSP: not above 0.25; QLCN: not above 0.25.
The result for YEII reads not above 0.25; that for MRVF, not above 0.25.
On to DVYF, for which the enrichment ratio is not above 0.25.
Take WQEK: the enrichment ratio was not above 0.25.
Take TVQI: the enrichment ratio stood at 11.
Next, GDKT: not above 0.25; SLLD: 0.296; KGPI: not above 0.25.
The result for QHCV reads not above 0.25.
The result for NVPE reads not above 0.25.
PLRV: the enrichment ratio was not above 0.25.
In the case of NWYY, the enrichment ratio was not above 0.25.
Next, ASRS: not above 0.25; PCSC: not above 0.25.
The result for VAPV reads not above 0.25; that for VLCK, not above 0.25.
Regarding WTKK, the enrichment ratio was not above 0.25.
On to TAKI, for which the enrichment ratio was not above 0.25.
The result for TFMV reads 1.01; that for FPVF, not above 0.25.
YSNN: the enrichment ratio amounted to 0.417.
Next, ACPQ: not above 0.25; DRFH: not above 0.25.
For GMRH, the enrichment ratio was not above 0.25.
As for QKTE, the enrichment ratio is not above 0.25.
The result for SMCQ reads 7.8.
As for KGPH, the enrichment ratio is not above 0.25.
Next, MGGS: 17.9; IFLY: not above 0.25; TEIK: not above 0.25.
The result for HHMI reads not above 0.25.
Take FKKG: the enrichment ratio is not above 0.25.
On to SKVN, for which the enrichment ratio was found to be 1.04.
TDDP: the enrichment ratio is not above 0.25.
In the case of PFRW, the enrichment ratio was not above 0.25.
TPSV: the enrichment ratio is not above 0.25.
Next, NFEY: not above 0.25.
The result for ENMF reads not above 0.25; that for QRHE, not above 0.25; that for AQGI, 1.32.
With AELW, the enrichment ratio came out at 11.4.
Regarding SNTG, the enrichment ratio was determined as 9.7.
Next, TTEF: 3.01; STLE: 5.39; HFCV: not above 0.25.
SARC: the enrichment ratio is not above 0.25.
With INDY, the enrichment ratio was not above 0.25.
Turning to DCFG, the enrichment ratio is not above 0.25.
The result for PPWV reads not above 0.25.
Turning to MNIS, the enrichment ratio was not above 0.25.
Next, SHHR: not above 0.25.
With FTCC, the enrichment ratio is not above 0.25.
Next, MGVY: 1.34; ECDF: not above 0.25.
Next, DCEY: not above 0.25; FYAF: not above 0.25; AKPF: not above 0.25.
Next, KMPG: not above 0.25; SDSL: 0.277; ITGT: not above 0.25.
As for QRVN, the enrichment ratio is not above 0.25.
YFQF: the enrichment ratio is not above 0.25.
As to IGGF, the enrichment ratio is not above 0.25.
Next, YYRD: not above 0.25; YTHK: 2.21.
The result for EQIN reads not above 0.25.
The result for RWYN reads not above 0.25; that for DRRL, not above 0.25.
For FVWN, the enrichment ratio was not above 0.25.
The result for WWQL reads not above 0.25; that for NGRA, not above 0.25.
The result for WPRN reads not above 0.25; that for GENV, not above 0.25; that for GKQG, not above 0.25.
Regarding WKSH, the enrichment ratio is not above 0.25.
Turning to ADVH, the enrichment ratio is 0.679.
The result for FLCQ reads not above 0.25; that for TFMR, not above 0.25; that for YKAD, not above 0.25.
Next, WAFF: not above 0.25; MSAN: 9.44; GYPT: not above 0.25.
For FLYP, the enrichment ratio is not above 0.25.
Next, QECH: not above 0.25; YKRG: not above 0.25; NTVH: not above 0.25.
As to PHMC, the enrichment ratio is not above 0.25.
Next, TEAC: 25.6.
The result for DNWA reads not above 0.25.
LLGN: the enrichment ratio was not above 0.25.
With AIVP, the enrichment ratio was 0.273.
Next, YMGN: not above 0.25; PQKS: not above 0.25; RAQF: not above 0.25.
